The values that follow come from PMC12820563, “FoxP3 forms a head-to-head dimer in vivo and stabilizes its multimerization on adjacent microsatellites”.

Some of the results follow.

The target in this test is T1, MBP-FoxP1dN (Mus musculus, UniProt P58462 326-579).
T1 sequence: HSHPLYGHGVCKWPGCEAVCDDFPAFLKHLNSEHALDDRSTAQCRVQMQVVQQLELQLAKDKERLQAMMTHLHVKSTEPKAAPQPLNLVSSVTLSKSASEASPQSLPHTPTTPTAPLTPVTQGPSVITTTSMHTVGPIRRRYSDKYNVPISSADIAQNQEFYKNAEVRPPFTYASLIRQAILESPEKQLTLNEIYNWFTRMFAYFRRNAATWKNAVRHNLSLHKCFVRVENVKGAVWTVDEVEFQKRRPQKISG
The test is described as follows: PD-seq (MBP pull-down with sequencing); 20 mM Tris-HCl pH 7.5, 100 mM NaCl, 1.5 mM MgCl2, 0.4 uM protein, 0.1 uM dsDNA library, 30 min, room temperature, amylose pull-down; high values mean tight binding. The following applies: protein: recombinant; tags: His6-MBP; chain copies: 2; dsDNA, one strand shown. In short, it runs like this:
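A degenerate double-stranded DNA library, filled in with Klenow, was added at 0.1 µM to 0.4 µM His6-MBP-tagged mouse FoxP3 or FoxP1 fragment lacking the N-terminus, expressed in E. coli. Incubation lasted 30 min at room temperature in Tris pH 7.5 buffer with NaCl and MgCl2, after which complexes were collected on amylose resin, washed three times, digested with proteinase K to free the DNA, barcoded by PCR and sequenced by Illumina. Binding is the pooled-replicate reads-per-million enrichment of pull-down over input.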
For “GATGATTGTTCTCCCAGCTGATGAATTTCGTCACTCGAGTAAACAAATTTTCCTAATCTTTCTGTTCAAGCGCCATCTAC”, the binding signal was 0.938 RPM ratio (pull-down/input). Consider “GATGATTGTTCTCCCAGCTGATGAATTCGCCATTTCGAGTAAACAAATTTTCCTAATCTTTCTGTTCAAGCGCCATCTAC”, for which the binding signal is 0.911 RPM ratio (pull-down/input). As to “GATGATTGTTCTCCCAGCTGATGAATTTTCTTCATCGAGTAAACAAATTTTCCTAATCTTTCTGTTCAAGCGCCATCTAC”, the binding signal was 1 RPM ratio (pull-down/input). For “GATGATTGTTCTCCCAGCTGATGAATTACCGAGATCGAGTAAACAAATTTTCCTAATCTTTCTGTTCAAGCGCCATCTAC”, the binding signal was 0.942 RPM ratio (pull-down/input).

As to “GATGATTGTTCTCCCAGCTGATGAATTGAAGAGGTCGAGTAAACAAATTTTCCTAATCTTTCTGTTCAAGCGCCATCTAC”, the binding signal is 0.797 RPM ratio (pull-down/input). Then “GATGATTGTTCTCCCAGCTGATGAATTCGCCAAATCGAGTAAACAAATTTTCCTAATCTTTCTGTTCAAGCGCCATCTAC”, with 0.936 RPM ratio (pull-down/input); and “GATGATTGTTCTCCCAGCTGATGAATTTTTAGGCTCGAGTAAACAAATTTTCCTAATCTTTCTGTTCAAGCGCCATCTAC”, with 0.893 RPM ratio (pull-down/input); and “GATGATTGTTCTCCCAGCTGATGAATTATTTCGCTCGAGTAAACAAATTTTCCTAATCTTTCTGTTCAAGCGCCATCTAC”, with 1.04 RPM ratio (pull-down/input).

With “GATGATTGTTCTCCCAGCTGATGAATTTTACCATTCGAGTAAACAAATTTTCCTAATCTTTCTGTTCAAGCGCCATCTAC”, the binding signal was 0.993 RPM ratio (pull-down/input). Then “GATGATTGTTCTCCCAGCTGATGAATTGCAGCACTCGAGTAAACAAATTTTCCTAATCTTTCTGTTCAAGCGCCATCTAC”, with 1.11 RPM ratio (pull-down/input); and “GATGATTGTTCTCCCAGCTGATGAATTTTCCTGTTCGAGTAAACAAATTTTCCTAATCTTTCTGTTCAAGCGCCATCTAC”, with 0.877 RPM ratio (pull-down/input); and “GATGATTGTTCTCCCAGCTGATGAATTAAAGCTATCGAGTAAACAAATTTTCCTAATCTTTCTGTTCAAGCGCCATCTAC”, with 0.951 RPM ratio (pull-down/input). Then “GATGATTGTTCTCCCAGCTGATGAATTCCAGTGCTCGAGTAAACAAATTTTCCTAATCTTTCTGTTCAAGCGCCATCTAC”, with 0.775 RPM ratio (pull-down/input). For “GATGATTGTTCTCCCAGCTGATGAATTAATATACTCGAGTAAACAAATTTTCCTAATCTTTCTGTTCAAGCGCCATCTAC”, the binding signal is 1.04 RPM ratio (pull-down/input).

For “GATGATTGTTCTCCCAGCTGATGAATTAAGAGGTTCGAGTAAACAAATTTTCCTAATCTTTCTGTTCAAGCGCCATCTAC”, the binding signal is 0.904 RPM ratio (pull-down/input). As for “GATGATTGTTCTCCCAGCTGATGAATTCAGGCGTTCGAGTAAACAAATTTTCCTAATCTTTCTGTTCAAGCGCCATCTAC”, the binding signal was 0.924 RPM ratio (pull-down/input). In the case of “GATGATTGTTCTCCCAGCTGATGAATTGAGGGCATCGAGTAAACAAATTTTCCTAATCTTTCTGTTCAAGCGCCATCTAC”, the binding signal was 0.951 RPM ratio (pull-down/input). “GATGATTGTTCTCCCAGCTGATGAATTCCGACTCTCGAGTAAACAAATTTTCCTAATCTTTCTGTTCAAGCGCCATCTAC”: the binding signal is 0.843 RPM ratio (pull-down/input). Then “GATGATTGTTCTCCCAGCTGATGAATTAAGGCGATCGAGTAAACAAATTTTCCTAATCTTTCTGTTCAAGCGCCATCTAC”, with 0.912 RPM ratio (pull-down/input); and “GATGATTGTTCTCCCAGCTGATGAATTGCATTGATCGAGTAAACAAATTTTCCTAATCTTTCTGTTCAAGCGCCATCTAC”, with 1.25 RPM ratio (pull-down/input); and “GATGATTGTTCTCCCAGCTGATGAATTAGACATTTCGAGTAAACAAATTTTCCTAATCTTTCTGTTCAAGCGCCATCTAC”, with 1.02 RPM ratio (pull-down/input). With “GATGATTGTTCTCCCAGCTGATGAATTTCGCTATTCGAGTAAACAAATTTTCCTAATCTTTCTGTTCAAGCGCCATCTAC”, the binding signal was 0.945 RPM ratio (pull-down/input). Then “GATGATTGTTCTCCCAGCTGATGAATTACTGAGTTCGAGTAAACAAATTTTCCTAATCTTTCTGTTCAAGCGCCATCTAC”, with 0.998 RPM ratio (pull-down/input); and “GATGATTGTTCTCCCAGCTGATGAATTACTTCGCTCGAGTAAACAAATTTTCCTAATCTTTCTGTTCAAGCGCCATCTAC”, with 1.01 RPM ratio (pull-down/input); and “GATGATTGTTCTCCCAGCTGATGAATTTGTAATGTCGAGTAAACAAATTTTCCTAATCTTTCTGTTCAAGCGCCATCTAC”, with 1.26 RPM ratio (pull-down/input). As to “GATGATTGTTCTCCCAGCTGATGAATTGGGGGCTTCGAGTAAACAAATTTTCCTAATCTTTCTGTTCAAGCGCCATCTAC”, the binding signal was 0.816 RPM ratio (pull-down/input).

Take “GATGATTGTTCTCCCAGCTGATGAATTTATATTGTCGAGTAAACAAATTTTCCTAATCTTTCTGTTCAAGCGCCATCTAC”: the binding signal is 2.36 RPM ratio (pull-down/input). Then “GATGATTGTTCTCCCAGCTGATGAATTAAATCGCTCGAGTAAACAAATTTTCCTAATCTTTCTGTTCAAGCGCCATCTAC”, with 0.914 RPM ratio (pull-down/input); and “GATGATTGTTCTCCCAGCTGATGAATTAGCGAGTTCGAGTAAACAAATTTTCCTAATCTTTCTGTTCAAGCGCCATCTAC”, with 0.871 RPM ratio (pull-down/input); and “GATGATTGTTCTCCCAGCTGATGAATTAAGCGCCTCGAGTAAACAAATTTTCCTAATCTTTCTGTTCAAGCGCCATCTAC”, with 0.975 RPM ratio (pull-down/input). Then “GATGATTGTTCTCCCAGCTGATGAATTCCACCGTTCGAGTAAACAAATTTTCCTAATCTTTCTGTTCAAGCGCCATCTAC”, with 0.784 RPM ratio (pull-down/input). Then “GATGATTGTTCTCCCAGCTGATGAATTAGTTTACTCGAGTAAACAAATTTTCCTAATCTTTCTGTTCAAGCGCCATCTAC”, with 1.5 RPM ratio (pull-down/input).
